According to PubChem BioAssay AID902 (National Center for Advancing Translational Sciences (NCATS), 2007):
The campaign covered roughly 130,000 compounds. About 1,900 (1.5%) were called active. This list was built around the results that the source calls inconclusive (neither active nor inactive); the mix of calls is not that of the screen. Calls come from the whole dose curve; as a rule, active = well fitted cell-killing curve with a large enough effect; inconclusive = small, poorly fitted or top-dose-only effect; inactive = no such curve, though single readings can be large or run the other way. Potencies beside an inconclusive call are fits to weak or partial responses and may not hold up.

assay: qHTS Screen for Compounds that Selectively Target Cancer Cells with p53 Mutations: Cytotoxicity of p53ts Cells at the Nonpermissive Temperature; settings: H1299-p53A138V viability at 39C, ATP luminescence, 24 h; activity change, negative = cell killing: at 46.1 µM (top of the series); note: nearly all actives have a fitted effect of over 55% in size
% is set by controls: 0 for no effect and ±100 for the full control effect; potency is the fitted concentration of half-maximal effect; tags give direction and shape of the fitted curve.

SMILES	activity change, negative = cell killing	Potency
COc1ccc(C(=O)CN2C(=O)c3ccccc3C2=O)c(OC)c1C	inactive: 11.9%	–
CNc1nc(-c2ccc(N(C)C)cc2)nc2ccccc12	–	active: 10 µM
COc1ccccc1Nc1c2c(nc3ccc(NC(=O)c4ccccc4F)cc13)CCCC2	–	inconclusive: 12.6 µM [cytotoxic, single point]
COC(=O)c1sccc1S(=O)(=O)N(CC(=O)NCc1ccc(C)cc1)c1ccc(C)c(C)c1	inactive: -15.2%	–
COc1ccc(S(=O)(=O)N(CC(=O)Nc2ccccc2Cl)Cc2ccccc2)cc1	inactive: -6.15%	–
COc1cc(OC)cc(C(=O)Nc2ccc3nc4n(c(=O)c3c2)CCCCC4)c1	–	inconclusive: 7.94 µM [cytotoxic, partial curve, poor fit]
Cc1ccc2nc(-c3cccc(S(=O)(=O)N(C)C)c3)cn2c1	–	inconclusive: 10 µM [cytotoxic, partial curve]
COc1ccc(NS(=O)(=O)c2ccc3[nH]c(=O)ccc3c2)cc1OC	–	inconclusive: 25.1 µM [cytotoxic, single point]
CCn1c(CSc2nc3ccccc3s2)nc2ccccc21	inactive: 12%	–
CCC(Sc1nnc(-c2ccc(OC)c(OC)c2)c(-c2ccc(OC)c(OC)c2)n1)C(=O)NC1CCCC1 (stereo not drawn)	–	inconclusive: 31.6 µM [cytotoxic, single point]
COc1ccc(C(=O)Nc2nc3ccccc3n2CCOc2ccc(Cl)cc2)cc1	–	inconclusive: 5.01 µM [cytotoxic, partial curve]
CCCCNc1nc(C)nc2c1nc(-c1ccccc1)n2CCCN(C)C	inactive: 8.24%	–
COc1cc(CNCCSc2nnnn2C)ccc1OCc1ccc(Cl)cc1Cl	–	active: 25.1 µM
Clc1ccc(NCc2nc3ccccc3n2CCOc2ccccc2)cc1	–	inconclusive: 3.98 µM [cytotoxic, single point]
O=C1C(O)=C(O)C(=O)C(O)=C1O	–	inactive
Cc1cccc(-n2nnnc2SC(C)C(=O)NCCC2=CCCCC2)c1 (stereo not drawn)	inactive: -5.95%	–
CC(C)Nc1nc2c(-c3cccc(Br)c3)nnn2c2ccccc12	–	inconclusive: 6.31 µM [cytotoxic, partial curve, poor fit]
CCc1ccc(NC(=O)Cn2cc(S(=O)(=O)c3ccc(F)cc3)c(=O)c3cc(OC)ccc32)cc1	–	active: 12.6 µM
Nc1c(S(=O)(=O)c2cccs2)c2nc3ccccc3nc2n1Cc1ccc2c(c1)OCO2	inactive: 6.72%	–
Cn1nnnc1SCCNCc1ccc(Cl)c(Cl)c1	inactive: 11.3%	–
Cc1cc2c(cc3c(SCC(=O)Nc4ccc(Cl)cc4F)nncn32)o1	inactive: -28.8%	–
O=C(NCCNc1ccc([N+](=O)[O-])cc1C(F)(F)F)c1cccc(F)c1	–	inconclusive: 11.2 µM [cytotoxic, single point]
Cc1cccc(NC(=O)c2sc3nc(-c4cc5ccc(O)cc5oc4=O)[nH]c(=O)c3c2C)c1	inactive: -25.1%	–
O=C(Cn1c(=O)nc(-c2ccccc2F)c2cc(Cl)ccc21)NCCCc1ccccc1	–	inconclusive: 15.8 µM [cytotoxic, single point]

SMILES	activity change, negative = cell killing	Potency
CCc1ccc(OCC(=O)Nc2ncn[nH]2)c(Br)c1	–	active: 1.58 µM
COc1cccc(-c2noc(-c3cc(C(C)C)[nH]n3)n2)c1OC	inactive: -20.1%	–
CCC(Sc1nc2ncccc2o1)C(=O)Nc1ccc(OC)c(OC)c1 (stereo not drawn)	–	inconclusive: 7.94 µM [cytotoxic, full curve, poor fit]
Cc1nn(Cc2ccc(Cl)cc2)c(C)c1NC(=O)c1cc(-c2ccc3c(c2)OCO3)on1	–	inconclusive: 15.8 µM [cytotoxic, single point]
O=S(=O)(c1ccc(S(=O)(=O)N(Cc2ccco2)Cc2ccccc2Cl)cc1)N1CCCC1	inactive: 1.12%	–
Cc1ccc(C(c2c(O)cc(C)n(Cc3ccco3)c2=O)N2CCC(C)CC2)cc1 (stereo not drawn)	inactive: -14.3%	–
C=CCOC(=O)c1sc(NC(=O)c2ccco2)nc1C	–	inconclusive: 12.6 µM [cytotoxic, partial curve]
Cc1ccc(SCC(=O)Nc2ccc3oc(-c4cccc(Cl)c4)nc3c2)cc1	–	inconclusive: 31.6 µM [cytotoxic, single point]
O=C(Nc1cccc(F)c1)N1CC=C(n2c(=O)[nH]c3ccccc32)CC1	–	inconclusive: 15.8 µM [cytotoxic, partial curve]
COc1cccc(-c2cc(C(=O)Nc3cc(C)n(Cc4ccc(Cl)cc4)n3)no2)c1	–	inconclusive: 12.6 µM [cytotoxic, partial curve]
O=[N+]([O-])c1cccc(/C=N\Nc2ccc3ccccc3n2)c1O	–	active: 3.98 µM
Cc1ccc(-c2cc(C(=O)Oc3ccc(C#N)cc3)no2)cc1C	–	inconclusive: 0.199 µM [cytotoxic, full curve, poor fit]
CC(C)Oc1ccc(C(=O)Nc2ccc(N3CCCC3)cc2)cc1	inactive: 3.1%	–
Cc1ccccc1CCNC(=O)c1ccc2c(c1)nc1n2CCCCC1	–	active: 1 µM
O=C(CCn1c(=O)c2sccc2n(Cc2ccc(F)cc2Cl)c1=O)NCc1ccc2c(c1)OCO2	–	inconclusive: 12.6 µM [cytotoxic, single point]
Cc1cccc(-c2nc(CN3CCCC(C(=O)NCCc4ccc(Cl)cc4)C3)c(C)o2)c1 (stereo not drawn)	–	active: 12.6 µM
COc1ccc(-c2cc3ccc(OCc4nn[nH]n4)cc3oc2=O)cc1	–	active: 12.6 µM
COc1ccc(OC)c(C(c2nnnn2Cc2ccccc2)N2CCN(C)CC2)c1 (stereo not drawn)	inactive: -1.7%	–
CCOC(=O)CSc1ccc2nnc(-c3cccs3)n2n1	inactive: 9.84%	–
CC[C@@H]1Cc2cc(O)ccc2C2=C1c1ccc(O)cc1C[C@H]2CC	–	inconclusive: 12.6 µM [cytotoxic, partial curve]
COc1ccccc1CNc1ncnc2c1cnn2-c1ccc(C)cc1	–	inconclusive: 12.6 µM [cytotoxic, single point]
Cc1ccc(CN2CCCn3nc(C(=O)NCCc4cccc(C)c4)cc3C2=O)cc1	inactive: -2.31%	–
CC(NC(=O)c1ccc2c(c1)sc1nc(-c3ccccc3)cn12)C12CC3CC(CC(C3)C1)C2 (stereo not drawn)	inactive: -9.61%	–
Clc1ccc(Nc2c(-c3ccccc3Cl)nc3ccc(Cl)cn23)cc1	–	inconclusive: 10 µM [cytotoxic, single point]
